Where “and” joins values, the source holds several entries; their conditions need not be identical. Identical values can stand only once. Some of the results follow. Further columns of the screen follow, without active or inactive calls.
Legend:
Assay in all cases: Primary Screen for Target Class Profiling of Small Molecule Inhibitors of Methyltransferases
[1] = target: Glycine N-methyltransferase (Homo sapiens) (UniProt Q14749); conditions: purified enzyme, MTase-Glo SAH luminescence; measured here: GNMT inhibition; at 40 µM; stronger effect = lower value
How it was run: (§1)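 Each enzyme was assayed with SAM and its substrate. SAH formation detected by MTase-Glo luminescence; single-point 40 uM screen[…].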

[2] = target: Guanidinoacetate N-methyltransferase (Homo sapiens) (UniProt Q14353); conditions: purified enzyme, MTase-Glo SAH luminescence; measured here: GAMT inhibition; at 40 µM; stronger effect = lower value
How it was run: as §1

[3] = target: Histamine N-methyltransferase (Homo sapiens) (UniProt P50135); conditions: purified enzyme, MTase-Glo SAH luminescence; measured here: HNMT inhibition; at 40 µM; stronger effect = lower value
How it was run: as §1

[4] = target: Nicotinamide N-methyltransferase (Homo sapiens) (UniProt P40261); conditions: purified enzyme, MTase-Glo SAH luminescence; measured here: NNMT inhibition; at 40 µM; stronger effect = lower value
How it was run: as §1

[5] = target: Phenylethanolamine N-methyltransferase (Homo sapiens) (UniProt P11086); conditions: purified enzyme, MTase-Glo SAH luminescence; measured here: PNMT inhibition; at 40 µM; stronger effect = lower value
How it was run: as §1
% is scaled to controls: 0 for no effect and ±100 for the full control effect.

SMILES	activity change, negative = inhibition [1]	activity change, negative = inhibition [2]	activity change, negative = inhibition [3]	activity change, negative = inhibition [4]	activity change, negative = inhibition [5]
CCC(C)NC(=O)Cn1nc2n(Cc3ccc(C)cc3)c(=O)c3ccc(C(=O)NC(C)C)cc3n2c1=O (stereo not given)	-2.36%	3.6%	-0.641%	-0.094%	1.52%
COc1ccc(NC(=O)CSc2nnc3n(C)c(=O)c4ccc(C(=O)NC5CCCC5)cc4n23)cc1	-1.42%	0%	4.55%	5.19%	5.58%
Cc1ccc(CN2CC(=O)N(Cc3ccccc3F)c3ccccc3S2(=O)=O)cc1	-7.72%	-1.13%	-11.2%	-16.7%	-9.92%
CCCCCNc1nc2c(-c3cccc(C)c3)nnn2c2ccccc12	0.841%	1.08%	-1.55%	-1.09%	-2.06%
COc1ccccc1CNC(=O)C1c2c(n(C)c3ccccc23)SCC(=O)N1C1CCCCC1 (stereo not given)	12.5%	0%	4.93%	0.45%	6.78%
CCNC(=O)[C@@H]1C[C@H](NC(=O)Cc2cccc(F)c2F)CN1C1CCCC1	-0.003%	2.06%	-0.453%	4.03%	-0.503%
O=C(COC(=O)C(Cc1c[nH]c2ccccc12)NC(=O)c1ccco1)c1ccc(Br)cc1 (stereo not given)	-8.98%	4.3%	-6.95%	-8.92%	-2.87%
Cc1cn(C2C=CC(CO)O2)c(=O)[nH]c1=O (stereo not given)	-3.58%	–	-1.54%	–	–
CCCS(=O)(=O)N1CCC(F)(c2nc(CC(C)C)no2)CC1	0.655%	-0.212%	1.61%	-3.13%	-0.426%
C=Cc1ccc(Cn2nc3n(CCC(C)C)c(=O)c4ccc(C(=O)NCC(C)C)cc4n3c2=O)cc1	7.58%	0.381%	11.1%	6.49%	7.31%
CC(C)N(C(=O)c1ccccc1-c1ccc(CS(C)(=O)=O)cn1)C(C)C	-3.31%	-4.4%	-0.793%	-4.27%	-4.09%
OC1CC(c2cc(N3CCC(c4nc5ccccc5[nH]4)CC3)ncn2)C1 (stereo not given)	-3.32%	-3.27%	-23.7%	-11.3%	4.97%
CN(C)Cc1nnc(C2CC(NC(=O)Cc3c(F)cccc3Cl)C2)n1C (stereo not given)	-4.6%	-5.21%	-3.04%	-7.03%	-5.19%
CCOC(=O)[C@H](CCc1ccccc1)N[C@@H](C)C(=O)N1Cc2ccccc2C[C@H]1C(=O)O	–	3.48%	–	-13.2%	-0.856%
CCc1ccc(NS(=O)(=O)c2ccc3[nH]c4c(c3c2)CCCC4)cc1	-1.55%	0%	5.07%	1.67%	2.88%
NC1(C(=O)N[C@@H](CCO)c2ccc(Cl)cc2)CCN(c2ncnc3[nH]ccc23)CC1	-3.03%	0.859% and -5.08%	6.04%	-42.7% and -43%	-8.88% and -16.6%
Cc1cc(C)cc(N2C(=O)c3ccc(-c4ccco4)n3CC2(C)C(=O)NCc2ccc(Cl)cc2)c1 (stereo not given)	-16.2%	0%	5.5%	6.6%	3.98%
CC(CCc1ccccc1)NCC(O)c1ccc(O)c(C(N)=O)c1 (stereo not given)	4.88% and 6.13%	5.05% and 11.4%	9.14% and 4.18%	-13% and -3.88%	-0.238% and 3.16%
COc1ccc(CCNC(=O)c2cc3n(n2)CC(C)(C(=O)NCc2ccc(F)cc2)N(C)C3=O)cc1OC (stereo not given)	-16.9%	4.39%	3.33%	3.04%	2.08%

SMILES	activity change, negative = inhibition [1]	activity change, negative = inhibition [2]	activity change, negative = inhibition [3]	activity change, negative = inhibition [4]	activity change, negative = inhibition [5]
CCC(CC)NC(=O)c1ccc2c(c1)N(S(C)(=O)=O)CC2	-0.1%	0.543%	1.29%	-0.465%	3.91%
CC1CCC(NC(=O)Cn2c(=O)oc3cc(S(=O)(=O)N4CC(C)CC(C)C4)ccc32)CC1 (stereo not given)	-7.66%	4.18%	-4.76%	-16.1%	-14.7%
COC(=O)c1[nH]c(=O)c2ccccc2c1-c1ccc[nH]1	2.98%	4.7%	12.6%	-10.2%	8.1%
CC(=O)N1CC2(CCN(CCCn3ccnc3C)CC2)CC1C(=O)O (stereo not given)	-3.54%	2.69%	-2.55%	-0.177%	-0.452%
COC(=O)c1cc(OC)cc(OC)c1C(=O)c1c(OC)cc2c(c1O)C1CCCC(C)(O2)O1 (stereo not given)	0.015%	8.05%	10.6%	-7%	5.32%
Cc1ccc(C)c(C(=O)Cn2nc3n(C(C)C)c(=O)c4ccc(C(=O)NC5CCCCC5)cc4n3c2=O)c1	4.28%	1.53%	12.8%	0.279%	5.39%
CC1CC(OC(=O)C(O)c2ccccc2)CC(C)(C)C1 (stereo not given)	-2.58%	3.35%	-2.36%	-13.1%	-9.52%
Cc1ccc(C(=O)N2CCCC2C(=O)N2CCCC2c2nc3ccncc3[nH]2)cc1 (stereo not given)	-0.57%	3.52%	2.45%	-2.79%	16.7%
CC(C)c1ccc(S(=O)(=O)N2CCCN(C)c3ccccc32)cc1	-13.4%	-7.5%	-9.55%	-19.5%	-18.1%
O=S(=O)(NCc1cccnc1)c1ccc(Cl)c(-c2nnc(-c3ccccc3)o2)c1	-7.25%	1.86%	-4.46%	-10.3%	-4.68%
N[C@H]1CN(C(=O)c2cccc(-n3cnnc3)c2)C[C@@H]1c1ccccc1	-3.57%	-5.77%	-6.17%	-6.3%	-4%
C=C1C(=O)O[C@@H]2[C@H]3C(C)=CC(=O)C3=C(C)[C@@H](OC(=O)/C(C)=C\C)[C@H](O)[C@@H]12	2.92%	2.49%	9.81%	-6.49%	5.41%
O=C(O)c1cccnc1Nc1cccc(C(F)(F)F)c1	-2.8%	5.41%	2.12%	-5.09%	3.5%
CN1C(=O)c2cc(C(=O)NCc3ccccc3F)nn2CC1(C)C(=O)NC1CCCCC1 (stereo not given)	4.27%	1.6%	1.25%	0.898%	-1.05%
CCOc1ccc(N2C(=O)c3c(C(=O)OC)ncn3CC2(C)C(=O)NC2CCCCCC2)cc1 (stereo not given)	-1.49%	3.39%	-0.573%	11.1%	3.64%
C/C=C(\C)C(=O)OC[C@H]1O[C@H](O[C@H]2O[C@H](CO)[C@@H](OC(=O)/C(C)=C/C)[C@H](O)[C@H]2O[C@@H]2O[C@H](CO)[C@@H](O)[C@H](O)[C@H]2O)[C@H](O[C@@H]2O[C@H](CO)[C@@H](O)[C@H](O)[C@H]2O)[C@@H](O)[C@@H]1O	3.4%	7.48%	11.1%	-3.94%	5.83%
NC(C(=O)N[C@@H]1C(=O)N2C(C(=O)O)=C(Cl)CS[C@H]12)c1ccccc1 (stereo not given in full)	-15.4%	14.1%	10.9%	-1.67%	6.5%
CCOCCCNC(=O)N1Cc2c(sc3c2CCCC3)-n2cccc2C1c1cccc(OC)c1 (stereo not given)	-7.94%	1.87%	1.54%	-15.7%	-4.04%
CCOc1ccc(CCN2C(=O)c3ccc(-c4ccco4)n3CC2(C)C(=O)NCc2ccc(Cl)cc2)cc1 (stereo not given)	-3.21%	4.21%	4.44%	-4.22%	-3.92%
